Experimental data published in PubChem BioAssay AID624202 (National Center for Advancing Translational Sciences (NCATS), 2012).
In all, about 380,000 compounds went through this assay and about 4,000 (1.1%) were called active. The inconclusive results got no clear call from the source; some entries with a clear call stand among them for comparison. Calls come from the whole dose curve; as a rule, active = well fitted activation curve with a large enough effect; inconclusive = small, poorly fitted or top-dose-only effect; inactive = no such curve, though single readings can be large or run the other way. Potencies beside an inconclusive call are fits to weak or partial responses and may not hold up.

Experiment: qHTS Assay to Identify Small Molecule Activators of BRCA1 Expression; note: nearly all actives have a fitted effect of over 80% in size
Conditions: MCF7-BRCA1-FFLuc reporter, luminescence, 48 h; activation: at 46.1 µM (top of the series), scaled: vehicle 0%, 10 µM genistein 100% unless noted
In short: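 48 h compound treatment of MCF7-BRCA1-FFLuc cells (phenol-red free MEM, 37 °C), then 15 min with luciferase substrate and luminescence imaging.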
Potency is the fitted concentration of half-maximal effect; tags give direction and shape of the fitted curve.

| Compound | Potency | activation |
| --- | --- | --- |
| CC(C)(C)C(=O)N1CCN(c2nc3ccccc3s2)CC1 | active: 3.16 µM |  |
| O=C(CCN1C(=O)S/C(=C\C=C\c2ccccc2)C1=O)Nc1ccc(O)cc1 | inconclusive: 31.6 µM [activator, single point] |  |
| Cc1ccc(-c2nc3ccc(Cl)cn3c2Cc2ccccc2C(F)(F)F)cc1 | inconclusive: 15.8 µM [activator, single point] |  |
| CCOC(=O)C1Oc2ccccc2C(c2ccc(OC)cc2)=C1C(=O)OC (stereo not given) |  | inactive: 5.42% |
| O=C(CSc1nc2cc(Cl)ccc2o1)Nc1ccc(N2CCOCC2)cc1 | active: 12.6 µM |  |
| O=C(CNC(=O)c1ccco1)Nc1ccc(N2CCCCCC2)cc1 | inconclusive: 11.2 µM [activator, partial curve, poor fit] |  |
| CCn1c(SCC(=O)c2ccccc2)nnc1-c1cnccn1 | active: 10 µM |  |
| COc1ccc(NC(=S)N2N=CCC2c2ccccc2)cc1 (stereo not given) | inconclusive: 1.41 µM [activator, full curve, poor fit] |  |
| c1ccc(CSc2nnc(-c3ccncc3)o2)cc1 | inconclusive: 10 µM [activator, partial curve, poor fit] |  |
| O=c1c2ccccc2cnn1CCOc1ccccc1 |  | inconclusive: -79.7% [activator] |
| CCc1c(C)nc2ncnn2c1Nc1ccc(C(C)=O)cc1 | inconclusive: 14.1 µM [activator, partial curve, poor fit] |  |
| Cc1cc(C(=O)NC2CCC(C)CC2)c(C)o1 (stereo not given) | inconclusive: 1.41 µM [activator, full curve, poor fit] |  |
| CCCS/C(N)=N/N=C/c1cc(C)ccc1O | inconclusive: 1.26 µM [activator, full curve, poor fit] |  |
| Cc1ccc(S(=O)(=O)N2[C@@H](c3ccc(Br)cc3)C(C(=O)O)=C[C@H]2C(C)(C)C)cc1 |  | inactive: 5.86% |
| c1ccc(-c2cn3nc4c(nc3n2)CCCC4)cc1 |  | inconclusive: -68.8% [activator] |
| CCOc1ccc(NC(=O)C2CCN(S(=O)(=O)c3ccc4c(c3)oc(=O)n4C)CC2)cc1 |  | inactive: -10.3% |
| COc1cc(C(=O)NCC(c2cccs2)N2CCc3ccccc32)cc(OC)c1OC (stereo not given) |  | inactive: -31% |
| CCOC(=O)c1sc(NC(=O)c2ccccc2OCC)nc1C | inconclusive: 2 µM [activator, full curve, poor fit] |  |
| CC(=O)n1nc(-c2ccc(C)cc2)nc1NCc1ccc(F)cc1 | active: 3.16 µM |  |
| Cc1ccc(C(=O)O/N=C(\N)Cc2cccs2)c(Cl)c1 | inconclusive: 1.41 µM [activator, partial curve, poor fit] |  |
